These results are taken from PubChem BioAssay AID1346428 (National Center for Advancing Translational Sciences (NCATS), 2018).

In all, about 48,000 compounds went through this assay and about 1,200 (2.5%) were called active. Another 2% or so got no clear call; they are omitted.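 Rule for the calls: active = activation of at least 60% and not above a set upper limit (about 1 call in 100 departs from these limits); inconclusive = activation of 40% to 60%, or above that upper limit; inactive = activation under 40%.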 The list shows a part of the results.

Chain of UniProt O75388 (O75388 whole entry, looked up): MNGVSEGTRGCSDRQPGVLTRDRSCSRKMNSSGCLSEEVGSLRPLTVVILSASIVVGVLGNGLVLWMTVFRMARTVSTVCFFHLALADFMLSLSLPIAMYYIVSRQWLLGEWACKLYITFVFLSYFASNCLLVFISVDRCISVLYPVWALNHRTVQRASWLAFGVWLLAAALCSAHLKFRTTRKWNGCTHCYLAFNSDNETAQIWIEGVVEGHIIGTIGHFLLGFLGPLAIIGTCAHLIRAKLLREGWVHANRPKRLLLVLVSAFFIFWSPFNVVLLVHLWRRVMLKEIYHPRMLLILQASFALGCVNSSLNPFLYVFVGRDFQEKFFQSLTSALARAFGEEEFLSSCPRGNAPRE

The test concerns the target Probable G-protein coupled receptor 32 (Homo sapiens) (UniProt O75388). Nature of the test: qHTS for Agonists of Human Resolvin D1 Receptor DRV1. As to conditions: CHO-K1 GPR32 beta-arrestin PathHunter luminescence, 90 min; at 76.9 µM; active compounds read high; zero percent set by DMSO-only wells. The text has this:
Endogenous resolution of inflammation is known to be transduced through various GPCRs and their natural mediators of lipid nature. Resolvin D1 (RvD1) is one of the active players in resolution of acute inflammation through regulation of anti-inflammatory pathways; it is known to enhance phagocytosis of human macrophages, limits neutrophils infiltration, etc. […] The search for GPR32-activating small molecules with anti-inflammatory effects similar to its natural omega-3 derivative ligand in order to use them as research tools for further studies of inflammation and its resolution was the goal of this screening project. For primary screening assay, we used CHO-K1 GPR32 beta-arrestin cell line (DiscoveRx, #93-0321C2A) and the PathHunter(R) beta-Arrestin Assay (DiscoveRx) which measures recruitment of beta-arrestin to the GPR32 and generates chemiluminescent signal. These engineered cells stably transfected with GPR32 co-express GPR32-fused small 42-amino acid fragment of beta-Gal called ProLinktrade mark, and […] -tagged beta-Arrestin fusion protein. When GPR32 is activated by a ligand, it stimulates binding of beta -Arrestin to ProLink-tagged GPR32, and two parts of beta-Gal complement forming a functional enzyme. Upon substrate (PathHunter(R) Detection reagent) addition, beta-Gal hydrolyzes it and generates a chemiluminescent signal.
The cells were thawed and plated in thawing media containing F-12 HAM (Invitrogen, #11765-054), 10% FBS (Invitrogen, #10082), 1x Glutamine, and 1x Pen/Strep onto the 175-mm flask for 24 hours. Then, thawing media was replaced with Growth media which contains 800microg/mL Geneticin (Invitrogen, #10131) and 300microg/mL Hygromycin B (Invitrogen, #10687) in addition to described above. For the assay, the cells were harvested at ~80% confluent stage with Cell Dissociation buffer (Gibco, #13151), and seeded at 2,500 cells/ 3microL/well in assay media (PathHunter(R) Cell Plating Reagent, DiscoverX, #93-0563R1B) using MultiDrop Combi dispenser (Thermo Scientific, Logan, UT) onto white solid bottom tissue culture-treated 1536-well plates (Greiner # 789173-F) and allowed to attach overnight at 37 degrees C, 95% humidity, 5% CO2, . Next, 23nL/well of compound solutions in DMSO were added with a Pin Tool (Kalypsis, San Diego, CA) to the assay plates. As the basal control (EC0), 23 nL/well of DMSO was used on each plate. The cells were incubated in the presence of compounds or DMSO for 90 minutes at 37 degrees C, 5% CO2. Subsequently, 1.5microL/well of PathHunter(R) Detection Reagent prepared per the manufacturer's instructions was added to the assay plates with BioRAPTR FRDtrade mark dispenser (Beckman Coulter, San Francisco, CA) and incubated for 1 hour at ambient temperature prior to the measurement of the luminescent signal on ViewLux(R) uHTS Microplate Imager (Perkin Elmer, Waltham, MA).
Background: Quantitative high-throughput screening tests each substance at several concentrations.
With `COc1ccccc1C(=O)NCCSc1c(C)[nH]c2ccccc12`, the activation was inactive: 2.96%.
With `COc1ccc(N2CC(NC(=O)C3CC3)CC2=O)cc1` (stereo unspecified), the activation was inactive: -8.64%.
Under `CCC(NC(=O)Nc1ccc(OC)c(OC)c1)c1c(-n2cccc2)sc2c1CCN(C)C2` (stereo unspecified) stands inactive: -26.3%; under `CC(=O)c1cccc(NC(=O)[C@H](Cc2ccccc2)N2Cc3ccccc3C2=O)c1`, inactive: -5.43%; under `CCc1ccc(NC(=O)Cn2c(=O)c(CNc3ccccc3)cc3cc(OC)c(OC)cc32)cc1`, inactive: -46%.
As to `COc1ccc(CCNC(=O)c2ccc3c(c2)N=C(C)c2cc(C)ccc2S3)cc1OC`, the activation is inactive: -12.4%.
Consider `O=c1oc2ccc3ccccc3c2cc1-c1nnc(Nc2ccc(Cl)cc2Cl)s1`, for which the activation is inactive: 0.367%.
Turning to `COc1cccc(NC(=O)CSc2nc(=O)n(Cc3ccccn3)c3c2CCC3)c1`, the activation is inactive: 0.255%.
Turning to `COc1ccc(-c2nc3ccccc3o2)cc1NC(=O)C(C)(C)Oc1ccc(Br)cc1`, the activation was inactive: -4.74%.
On to `Cc1cccc(NC(=O)C2CCCN(S(=O)(=O)c3c(C)[nH]c(=O)[nH]c3=O)C2)c1C` (stereo unspecified), for which the activation is inactive: -3.6%.
For the compound `CCOC(=O)c1c(NC(=O)c2ccc(S(=O)(=O)N(CC(C)C)CC(C)C)cc2)sc2c1CCN(CC)C2`, the activation is inactive: 32.9%.
With `O=C(Nc1nc(-c2ccccc2)ns1)c1ccc(Cl)cc1`, the activation was inactive: 4.58%.
Take `CC(C(=O)O)c1ccc2c(c1)CC(=O)c1ccccc1S2` (stereo unspecified): the activation is inactive: 6.11%.
Regarding `CCN(CC)c1ccc(NC(=O)C2CCN(S(=O)(=O)c3ccc4c(c3)oc(=O)n4C)CC2)c(C)c1`, the activation is inactive: 3.94%.
Regarding `COc1ccc(CN(C(=O)c2cc(=O)c3ccccc3o2)C2CCS(=O)(=O)C2)cc1OC` (stereo unspecified), the activation is inactive: -15.3%.
Under `COc1ccccc1N1CCN(C(=O)c2ccc3c(c2)N(Cc2cc(C)ccc2C)C(=O)c2ccccc2S3(=O)=O)CC1` stands inactive: -11.4%.
For `Cc1cccc(NC(=O)C(NS(=O)(=O)c2cccc3nsnc23)c2ccccc2)c1C` (stereo unspecified), the activation is inactive: -18.3%.
Turning to `Cc1ccc(NC(=O)Cn2c(=O)n(Cc3ccco3)c(=O)c3sc4ccccc4c32)c(C)c1`, the activation was inactive: -3.78%.
As for `CC(C)(C)OC(=O)N1CCC(c2c(C(=O)N3CCN(c4ccccn4)CC3)cnn2-c2cccc(F)c2)CC1`, the activation was inactive: -12.4%.
For the compound `COc1ccc(N2CCN(S(=O)(=O)c3cc(Br)cc4c3N(C(=O)C3CC3)CC4)CC2)cc1`, the activation was inactive: 27%.
Consider `CCOC(=O)c1ccc(NS(=O)(=O)c2ccc3c(c2)CCN3C(=O)CC)cc1`, for which the activation was inactive: -10.9%.
Under `O=C(OCC(COC(=O)c1cccnc1)(COC(=O)c1cccnc1)COC(=O)c1cccnc1)c1cccnc1` stands inactive: 5.08%; under `CCOC(=O)c1c(C)c(-c2ccccc2)n(CC(=O)NCc2ccccc2)c1C`, inactive: 28.3%.
For the compound `COc1cc2c(=O)c(S(=O)(=O)c3ccc(C(C)C)cc3)cn(Cc3ccccc3C)c2cc1OC`, the activation was inactive: 8.61%.
On to `Cc1ccc(C(=O)NCC(c2ccco2)S(=O)(=O)c2ccccc2)cc1C` (stereo unspecified), for which the activation was inactive: -3.29%.
The result for `CSc1nc(N)c2ncn([C@@H]3O[C@H](COP(=O)(O)OP(=O)(O)O)C(O)[C@H]3O)c2n1` (stereo partly specified) reads inactive: 1.78%.
Turning to `O=C(Nc1cccc(C(F)(F)F)c1)c1cc2nc(-c3ccco3)cc(C(F)(F)Cl)n2n1`, the activation was inactive: 37.4%.
For `Cc1cc(C)c(Cn2c(=O)n(Cc3ccccc3)c(=O)c3c(C)c(C)sc32)c(C)c1`, the activation is inactive: 9.84%.
Turning to `O=C(CSc1nccn1Cc1ccccc1)Nc1nc2ccccc2s1`, the activation is inactive: -10.3%.
Take `COc1ccc(OC)c(NC(=O)COCc2cc(-c3ccco3)on2)c1`: the activation is inactive: -18%.
For the compound `CCOC(=O)c1cc(-c2ccccc2)n(CCC(=O)NCCc2ccc(C)cc2)c1C`, the activation is inactive: -28%.
For `COc1ccc(-n2nc(C(=O)N3CCCCC3)c3c4ccccc4n(C)c3c2=O)cc1Cl`, the activation was inactive: -9.35%.
For the compound `Cc1ccc(S(=O)(=O)c2nnn(CC(=O)Nc3ccccc3C)c2N)cc1`, the activation was inactive: 14.5%.
Take `CCCCNC(=O)Nc1ccc2c(c1)N(C)C(=O)c1ccccc1S2`: the activation is inactive: -9.38%.
Turning to `CCN(CC)C(=O)CN1C(=O)COc2ccc(S(=O)(=O)N3CCOCC3)cc21`, the activation was inactive: -19.6%.
In the case of `CCc1ccc(NC(=O)N2CCN(Cc3nc4ccc(C)cc4o3)CC2)cc1`, the activation was inactive: 0.249%.
As to `O=C(CSc1nc2c([nH]c3ccccc32)c(=O)n1-c1ccc(Cl)cc1)NC1CCCCC1`, the activation is inactive: -16.7%.
For the compound `CC(=O)[C@H]1CC[C@H]2[C@@H]3CC=C4C[C@@H](O)CC[C@]4(C)[C@H]3CC[C@]12C`, the activation was inactive: 28.5%.
In the case of `COc1ccc(NC(=O)Cn2nnc(C(=O)NCc3ccco3)c2N)c(OC)c1`, the activation was inactive: 17.4%.
On to `COc1ccccc1NC(=O)c1c(C)cc(C)nc1SCC(=O)Nc1ccc(C)cc1`, for which the activation was inactive: -23.9%.
The result for `CC(=O)Nc1ccc(S(=O)(=O)NCC2CCC(C(=O)NCc3ccccc3)CC2)cc1` (stereo unspecified) reads active: 98.8%.
